Laboratory results as given in patent publication US9872922B2, “Anti-EFNA4 antibody-drug conjugates” (PFIZER, INC., priority 2013, dated 2018).

Tests used:
[1] = tested on: Breast-5 (BR5) triple-negative breast cancer (TNBC) PDX; assay: In vivo efficacy, BR5 TNBC PDX; set-up: species or system NOD/SCID mice (human tumor PDX); settings: for Regression (TTP, Days): BR5 PDX
[2] = tested on: Breast-56 (BR56) TNBC PDX; assay: In vivo efficacy, BR56 TNBC PDX; set-up: species or system NOD/SCID mice (human tumor PDX)

B1: huE22-AcBut-CM: huE22 conjugated via lysine residues to AcBut-N-acetyl-γ-calicheamicin dimethyl hydrazide (AcBut-CM) (conjugate)
heavy: QVQLVQSGAEVKKPGASVKVSCKASGYTFTGYYIHWVRQAPGQGLEWMGWIYPGNFNTKYNERFKGRVTMTTDTSTSTAYMELRSLRSDDTAVYYCAREDGSPYYAMDYWGQGTSVTVSS[human IgG1 constant region omitted here]
light: DIVMTQTPLSLSVTPGQPASISCRSSQSLVHSNGNTFLYWYLQKPGQSPQLLIYRVSNRFSGVPDRFSGSGSGTDFTLKISRVEAEDVGVYYCFQATHVPWTFGGGTKVEIKRTVAAPSVFIFPPSDEQLKSGTASVVCLLNNFYPREAKVQWKVDNALQSGNSQESVTEQDSKDSTYSLSSTLTLSKADYEKHKVYACEVTHQGLSSPVTKSFNRGEC
tumor volume ± SEM ([1]; 0.09 mg/kg, Day 11): 209 ± 42 mm^3 | tumor volume ± SEM ([1]; 0.09 mg/kg, Day 18): 83 ± 25 mm^3 | tumor volume ± SEM ([1]; 0.09 mg/kg, Day 25): 30 ± 8 mm^3 | tumor volume ± SEM ([1]; 0.09 mg/kg, Day 47): 32 ± 25 mm^3 | tumor volume ± SEM ([1]; 0.09 mg/kg, Day 60): 159 ± 118 mm^3 | Regression (TTP, Days) ([1]; 0.09 mg/kg): Regression (53) Days | tumor volume ± SEM ([1]; 0.09 mg/kg, Day 0): 161 ± 21 mm^3 | tumor volume ± SEM ([1]; 0.09 mg/kg, Day 7): 441 ± 57 mm^3 | tumor volume ± SEM ([1]; 0.09 mg/kg, Day 32): 15 ± 10 mm^3 | tumor volume ± SEM ([1]; 0.09 mg/kg, Day 39): 14 ± 9 mm^3 | tumor volume ± SEM ([1]; 0.09 mg/kg, Day 53): 82 ± 66 mm^3 | tumor volume ± SEM ([1]; 0.09 mg/kg, Day 67): 318 ± 209 mm^3 | tumor volume ± SEM ([1]; 0.09 mg/kg, Day 74): 452 ± 234 mm^3 | tumor volume ± SEM ([1]; 0.09 mg/kg, Day 81): 811 ± 362 mm^3 | tumor volume ± SEM ([1]; 0.27 mg/kg, Day 11): 290 ± 42 mm^3 | tumor volume ± SEM ([1]; 0.27 mg/kg, Day 18): 69 ± 7 mm^3 | tumor volume ± SEM ([1]; 0.27 mg/kg, Day 25): 34 ± 6 mm^3 | tumor volume ± SEM ([1]; 0.27 mg/kg, Day 47): 0 ± 0 mm^3 | tumor volume ± SEM ([1]; 0.27 mg/kg, Day 60): 0 ± 0 mm^3 | tumor volume ± SEM ([1]; 0.27 mg/kg, Day 89): 0 ± 0 mm^3 | tumor volume ± SEM ([1]; 0.27 mg/kg, Day 95): 0 ± 0 mm^3 | tumor volume ± SEM ([1]; 0.27 mg/kg, Day 109): 0 ± 0 mm^3 | tumor volume ± SEM ([1]; 0.27 mg/kg, Day 130): 0 ± 0 mm^3 | tumor volume ± SEM ([1]; 0.27 mg/kg, Day 144): 0 ± 0 mm^3 | tumor volume ± SEM ([1]; 0.27 mg/kg, Day 152): 0 ± 0 mm^3 | tumor volume ± SEM ([1]; 0.27 mg/kg, Day 155): 0 ± 0 mm^3 | tumor volume ± SEM ([1]; 0.27 mg/kg, Day 172): 0 ± 0 mm^3 | Regression (TTP, Days) ([1]; 0.27 mg/kg): Regression (200) Days | tumor volume ± SEM ([1]; 0.27 mg/kg, Day 7): 428 ± 46 mm^3 | tumor volume ± SEM ([1]; 0.27 mg/kg, Day 39): 0 ± 0 mm^3 | tumor volume ± SEM ([1]; 0.27 mg/kg, Day 53): 0 ± 0 mm^3 | tumor volume ± SEM ([1]; 0.27 mg/kg, Day 67): 0 ± 0 mm^3 | tumor volume ± SEM ([1]; 0.27 mg/kg, Day 74): 0 ± 0 mm^3 | tumor volume ± SEM ([1]; 0.27 mg/kg, Day 81): 0 ± 0 mm^3 | tumor volume ± SEM ([1]; 0.27 mg/kg, Day 102): 0 ± 0 mm^3 | tumor volume ± SEM ([1]; 0.27 mg/kg, Day 116): 0 ± 0 mm^3 | tumor volume ± SEM ([1]; 0.27 mg/kg, Day 123): 0 ± 0 mm^3 | tumor volume ± SEM ([1]; 0.27 mg/kg, Day 137): 0 ± 0 mm^3 | tumor volume ± SEM ([1]; 0.27 mg/kg, Day 168): 0 ± 0 mm^3 | Regression (TTP, Days) or % TGI ([2]; 0.018 mg/kg, BR56 PDX): No activity | tumor volume ± SEM ([2]; 0.09 mg/kg, Day 4): 150 ± 10 mm^3 | tumor volume ± SEM ([2]; 0.09 mg/kg, Day 11): 268 ± 32 mm^3 | tumor volume ± SEM ([2]; 0.09 mg/kg, Day 18): 251 ± 25 mm^3 | tumor volume ± SEM ([2]; 0.09 mg/kg, Day 25): 286 ± 39 mm^3 | tumor volume ± SEM ([2]; 0.09 mg/kg, Day 40): 341 ± 47 mm^3 | tumor volume ± SEM ([2]; 0.09 mg/kg, Day 47): 442 ± 66 mm^3 | tumor volume ± SEM ([2]; 0.09 mg/kg, Day 54): 635 ± 94 mm^3 | tumor volume ± SEM ([2]; 0.09 mg/kg, Day 60): 816 ± 64 mm^3 | % TGI ([2]; 0.09 mg/kg, BR56 PDX): 56% TGI | tumor volume ± SEM ([2]; 0.09 mg/kg, Day 0): 148 ± 14 mm^3 | tumor volume ± SEM ([2]; 0.09 mg/kg, Day 33): 291 ± 45 mm^3 | tumor volume ± SEM ([2]; 0.27 mg/kg, Day 4): 151 ± 14 mm^3 | tumor volume ± SEM ([2]; 0.27 mg/kg, Day 11): 170 ± 21 mm^3 | tumor volume ± SEM ([2]; 0.27 mg/kg, Day 18): 90 ± 10 mm^3 | tumor volume ± SEM ([2]; 0.27 mg/kg, Day 25): 42 ± 13 mm^3 | tumor volume ± SEM ([2]; 0.27 mg/kg, Day 40): 0 ± 0 mm^3 | tumor volume ± SEM ([2]; 0.27 mg/kg, Day 47): 0 ± 0 mm^3 | tumor volume ± SEM ([2]; 0.27 mg/kg, Day 54): 11 ± 8 mm^3
